The other results are listed elsewhere or left out.
System: PfHDP1 homeodomain (GST-tagged)
Assay: gcPBM binding intensity (ln(normalized median fluorescence intensity)); higher = stronger DNA binding
Method in brief: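 Probes on an Agilent 4 × 180k array were primer-extended, double-stranded and 36 bp long, taken from intergenic genomic regions, with negative controls added. GST-tagged P. falciparum DNA-binding domains from E. coli, about 25 μg on average, were applied to the array for 1 h in 1× PBS containing 1% milk, 0.2 mg/ml BSA, 0.5% salmon testes DNA and 0.03% Triton X-100. Binding intensity, obtained after Alexa488 anti-GST antibody detection and a 488 nm scan, is the highest Masliner-normalised natural-log median intensity across replicate spots of either probe orientation.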

| Sequence | gcPBM binding intensity (ln) |
| --- | --- |
| ATACTATATATATAAGTGCATGTTCATTATACCTAA | 7.23 |
| ATAACTAAATGATATTGTACAAAATAATTATATATT [XGTACX_site1331] | 6.38 |
| ATATATATTATGTGTGTGCACTTTTGTTATTATTAT | 9.03 |
| AAAAATCAATTAGAAGAACACACGTAAATTTTTTTT [CACACA_site2396] | 6.47 |
| CATTATATGATTTATGTGCACATTCATTTATTTTAA | 10.8 |
| TATTAATAAAACCGTTGTACTACATACATAAATATT [XGTACX_site5578] | 6.5 |
| AAAAAAAAAAAAAAATGTACAAAAATTACTATAAAA [XGTACX_site7683] | 6.39 |
| TTTTTTTTTGTTTACACACACAAAATATTATATGTA [CACACA_site2470] | 6.61 |
| TTATAACACATTACATGTACAAATATAAATATATTC [XGTACX_site6503] | 6.46 |
| AAAAATATATATAACACACACATAATATATATATAT [CACACA_site2537] | 8.94 |
| TATTATTACGTAATATGTACATATATTTATACCACT [XGTACX_site5918] | 6.95 |
| AGGAAAAACTTGAATGCATGCGCACATTCTAGTTTG [TGCATGCA_site776] | 6.68 |
| ACAAATCTAAGATAGTGTACATTTATATATATATAT [XGTACX_site8740] | 8.96 |
| TTTATTTATCTGTATACACACTTTAATGAAAAGTTG [CACACA_site5400] | 7.03 |
| TTTATATACACACAGAAGAACAGAAATATTATATAT [TGCATGCA_negctrl_site483] | 6.69 |
| AATATAAATAAAAACACACACACACCCATATATATA [CACACA_site2267] | 7.13 |
| TATATATATATATAAGTGCATATAAAAATCGTTCGT | 9.45 |
| ATTTTTTTTTTTTTTTTTTTTTTTTGGAGAAAGAGA [CACACA_negctrl_site1119] | 5.98 |
| ATATATATATAATAAACACACACATATACATATATG [CACACA_site9145] | 8.39 |
| ATAAATACTAGGCACACACACATATATATATATATA [CACACA_site2080] | 9.43 |
| ATATATATATATATATGTACATATATGTATACCTTA [XGTACX_site6791] | 9.38 |
| CAATAGTTCTTATGGGTGCAAACCACATATATATAA [GTGCAC_site9606] | 8.76 |
| AAAATTATATATTATTGTACATAAAATTTTGACATA [XGTACX_site4886] | 6.45 |

| Sequence | gcPBM binding intensity (ln) |
| --- | --- |
| ATAACGATATATGTGCGTACTTATAGAATAAGCAAA [XGTACX_site6743] | 6.94 |
| ATATATCATATTATAGTGCATTTATAATAATATTAT | 8.51 |
| TATTATCTGTAGTGTACACATATTATATAGTACTTT [CACACA_site4582] | 7 |
| TATTTTTTTTTTATATGTACATAATTTCAAATAAAT [XGTACX_site7747] | 6.55 |
| AAGGATATAACATACACACACACACCGATATATATA [CACACA_site6136] | 7.04 |
| CTTTAACCTTTTTATTGTACTTTTAATATTTTAAAA [XGTACX_site4457] | 6.81 |
| TCTTTAATGAACAAATGTACAAGAACAATACCCGCA [XGTACX_site2047] | 6.83 |
| AATATATGGTATAATTGTACAAAAAAAAAAAAAAAA [XGTACX_site1476] | 6.38 |
| GTGAAATGGAAAAAAAGTACAGATTACATAAGTATT [XGTACX_site6355] | 6.33 |
| TATTAATTTATATCAACACACAAAATCAATATACTT [CACACA_site1757] | 6.28 |
| ATATAGATCAGACACACACACATGTTTTAAAACTAT [CACACA_site6186] | 7.03 |
| AAGGAATAATATAAAACACACACATAAATATAAATA [CACACA_site9115] | 7.01 |
| CGAAATATTATGTACGCACACACATTTTTAATATAT [CACACA_site3852] | 6.96 |
| TTCTATATTTTAGCTGATAATATTATGAGCTTCACT [XGTACX_negctrl_site427] | 6.44 |
| AACATAAATATATATAGTACATATATATATATTCAA [XGTACX_site7287] | 6.31 |
| AGCTCATGCAGGTGTACACAAAAAGAAAAAAAATAA [CACACA_site4828] | 6.74 |
| AAAACAAATATATTAACACACAAACATATAAACAAA [CACACA_site6052] | 7.07 |
| ATAAATAATGTTGACACACACAATAATCTTATTATG [CACACA_site3593] | 6.51 |
| CCCCATATAATGAACACACACACTCCTCATAATTAA [CACACA_site628] | 6.93 |
| ATGTCCTCAATGTTTACACACTCTTTTATATAAGTT [CACACA_site1460] | 7.13 |
| TATTTTAATTATAAATTTAAAAAAAAAAAGAAAAAA [CACACA_negctrl_site1674] | 6.03 |
| TGCTTATATATACGTGCACACATATATATAAGATAT [CACACA_site8516] | 9.62 |
| CTGGAGGATGAAAAAAGTACAAAAGGAGGAAATGTA [XGTACX_site8846] | 6.55 |

| Sequence | gcPBM binding intensity (ln) |
| --- | --- |
| TCTTATTTAAAAATAGCACACATTATGTATATATAT [CACACA_site2822] | 7.3 |
| AGCTCGGAAAAATTAGCATGCAAAAAAAAAAAAAAA [TGCATGCA_site658] | 6.18 |
| ATTATTATTAATAGTACACACTATGGCATTTCAATA [CACACA_site5388] | 6.58 |
| TATATAACTGTCTTCACACACACATATAAATAAATA [CACACA_site7317] | 6.74 |
| TATTTCACAACTTGTCGTACATTAATTGTATTATTT [XGTACX_site997] | 6.75 |
| ATCTTTCATCTACCAAGTACAAATTACTTTTTTTTT [XGTACX_site7001] | 6.79 |
| TTAGGTGTATATAATTGTACATTTTGGAAATTATAC [XGTACX_site5492] | 6.21 |
| TTCTTTTCTTCTACATGTACAAATATTATATATATA [XGTACX_site2996] | 7.07 |
| TTTTGGAATTTTAGCTGTACTTTTCCTATTTTGTAT [XGTACX_site7679] | 6.34 |
| TGAAACCATAAAGAATGTACACAGCGGTATAAGTTA [XGTACX_site674] | 6.8 |
| TTTTAAATAATACATACATGCATATATACACATATA [TGCATGCA_site8] | 6.58 |
| AATAAAATAAGAAGCACACAAATATTATATATAAAA [CACACA_site3980] | 6.87 |
| TTAATATATTTAAATATATATAAAATATATAATATG [CACACA_negctrl_site880] | 6.19 |
| TATATATAATATTATACACACATATATGCATAATAT [CACACA_site54] | 7.56 |
| TATTTATTTATATAAACACACATAAATATAAATATA [CACACA_site6653] | 6.39 |
| TATAGCATAAATATGTGTACATATTTATATGATATT [XGTACX_site6333] | 6.48 |
| ATATATATTTAAAAAAGTACAGAAGAAAATAACCCA [XGTACX_site642] | 7.19 |
| TTGTGTTTTACATATACATGCAAATTTTTTTTTTTA [TGCATGCA_site303] | 6.22 |
| TAAATCATTTCATGGCATTTACACAAAATTTTTTAA [CACACA_negctrl_site1260] | 6.37 |
| TTAAATTGAATTAGTTAACACACAACTTTTATTTCA [CACACA_site8921] | 6.06 |
| TCTTCATACGACTAAAAAACATTAGACTGATAAAAA [CACACA_negctrl_site628] | 6.29 |
| TATTACACATATTATACACACATATATTATATATAT [CACACA_site4951] | 7.02 |
| TAACATATTTTTAATACACACTTAAAAAAGTACTTA [CACACA_site4875] | 6.3 |

| Sequence | gcPBM binding intensity (ln) |
| --- | --- |
| TTTCTTTTTTCATTTACACACAATAATATAAGAATA [CACACA_site3164] | 6.71 |
| TACACAAATATATATATATATATATATATATATATA [XGTACX_negctrl_site305] | 9.34 |
| AAATACAAAATTGTTACACACATATTAAGTATGACA [CACACA_site4421] | 6.18 |
| AGTTTAGAATTTAATACACACAAAAAAAAAAAATTA [CACACA_site7698] | 6.34 |
| AACGTTCAATTTAAATGTACAAATGTATTTAAATAT [XGTACX_site315] | 6.38 |
| ACAAATAAATATATATGTACATATATTTTTTTATTT [XGTACX_site2989] | 6.6 |
| TTTTATTTATATTATACACACAAGGAAAAAAAAAAA [CACACA_site7690] | 6.75 |
| AATACCTTTTAATAATGTACAAACAAAAATTAGAGA [XGTACX_site6850] | 6.54 |
| TATATATTAAAAATAGTGCAAAATAATATATATATA [GTGCAC_site9716] | 10.1 |
| ATATATATATATATATGTACATATTCATCTTATTCT [XGTACX_site1537] | 9.33 |
| AAGGGGAGAAAAATAAACGAAATATATACATACATA [XGTACX_negctrl_site88] | 6.71 |
| TTTATGCACGCGTGCACACACATATGAAAAAAGGTA [CACACA_site3315] | 11 |
| TATGTTTAAATATATTGTACGCACGTATGTTTTTAA [XGTACX_site1108] | 6.62 |
| TTTTAGTTAATTCATGCATGTAAAGTTTTATTTATA [TGCATGCA_site252] | 6.33 |
| AAAAAAAAAAAAAAAGTACACACTTTTGCGTACATG [CACACA_site3097] | 6.49 |
| ATATTAATTTTTATTACACACTCTCAATTTTTATTT [CACACA_site58] | 6.76 |
| AAAATATACATAAACACACACAAAACGTTTAAGAAA [CACACA_site1071] | 7.11 |
| GTTTAACTGTTTTATACACACAATGTATCCAATAAA [CACACA_site5612] | 7 |
| ATGTCTATATATTAAGGTACACATATATGCTATTCA [XGTACX_site6008] | 6.48 |
| ATACATATTAACAAGGTGCAAATGGATTTCATAAAA [GTGCAC_site9775] | 9.11 |
| TTTTTTTTTTTGTGAGTGCACGTATGAAGAGAAAAA | 9.19 |

Reference: the supplement of paper PMC11417369
